# Test results taken from PubChem BioAssay AID485297 (National Center for Advancing Translational Sciences (NCATS), 2010).
# Out of some 320,000 compounds screened, about 9,100 (2.8%) were called active. Inconclusive results, whose numbers are uncertain, are shown with a selection of clear calls. Calls come from the whole dose curve; as a rule, active = well fitted activation curve with a large enough effect; inconclusive = small, poorly fitted or top-dose-only effect; inactive = no such curve, though single readings can be large or run the other way. Potencies of inconclusive entries are left out as doubtful fits.
# Assay: qHTS Assay for Rab9 Promoter Activators; note: nearly all actives have a fitted effect of over 60% in size; for activation, negative = inhibition: % of control where 0% means no effect
# Conditions: Huh7 Rab9 promoter-luciferase reporter, luminescence, 24 h; series mostly up to 9.22 µM; activation, negative = inhibition: at the top concentration
# Outline: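 Measured in stably transfected Huh7 cells bearing a Rab9 promoter–luciferase construct: 24 h compound treatment at 37 °C, followed by luminescence detection.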
# Potency is the fitted concentration of half-maximal effect; tags give direction and shape of the fitted curve.
SMILES,"activation, negative = inhibition",Potency
COc1ccc(-c2cc(-c3cc(C)ccc3O)[nH]n2)cc1,inactive: -35.7%,–
O=C(COC(=O)c1ccco1)Nc1ccc(Br)cc1,inactive: 2.9%,–
COc1ccc(N)c2c1C(=O)c1ccccc1C2=O,–,"inconclusive [activator, single point]"
O=C1CCCC(O)=C1N=Nc1cccc(C(=O)O)c1,–,active: 2.24 µM
Cc1cccc(NC(=O)c2ccc(C(=O)c3ccccc3)o2)c1,–,"inconclusive [activator, single point]"
O=C(Nc1nnc(SCC(=O)N2CCCCC2)s1)c1ccccc1F,inactive: 16.7%,–
CC(=O)c1ccccc1NC(=O)c1ccc2c(c1)NC(=O)C(C)S2 (stereo unspecified),–,"inconclusive [activator, partial curve]"
C/C(=N\Nc1ccc(C(=O)O)cc1)c1ccc2c(c1)Nc1ccccc1S2,–,"inconclusive [activator, partial curve]"
OCCNc1ncnc2c1cnn2Cc1ccccc1,inactive: -4.32%,–
CCCC(=O)Nc1ccc(N2CCCCC2)cc1,–,"inconclusive [activator, partial curve]"
CC(=O)Oc1ccc2cc(-c3ccccc3)c(=O)oc2c1,–,"inconclusive [activator, partial curve]"
CCOc1ccc2c(c1)S/C(=C\c1cccs1)C(=O)N2,–,"inconclusive [activator, single point]"
CN(C)c1ccc(NC(=O)c2sc(SCC(=O)Nc3nccs3)nc2N)cc1,–,"inconclusive [activator, partial curve]"
Cc1cc([N+](=O)[O-])ccc1NC(=O)c1cccc(NC(=O)C(C)C)c1,–,"inconclusive [activator, single point]"
O=C(NC1CCCCCCC1)c1cc(F)c(F)cc1Cl,–,"inconclusive [activator, single point]"
CCOC(=O)c1sc(NC(=O)Nc2ccc(Cl)cc2)nc1C,–,"inconclusive [activator, partial curve]"
Cc1cc(NC(=O)c2n[nH]c(=O)c3ccccc23)ccc1Br,–,active: 5.01 µM
O=C(c1cc(-c2ccccc2)on1)N1CCCc2ccccc21,–,"inconclusive [activator, single point]"
CC(C)Cc1csc(NC(=O)c2ccc(Br)cc2)c1C(=O)O,inactive: 12.9%,–
COc1cccc(NC(=O)c2cccc(OC)c2OC)c1,–,"inconclusive [activator, single point]"
CN(Cc1cccnc1)C(=O)c1ccc2nc(Cc3ccccc3F)oc2c1,–,"inconclusive [activator, single point]"
